Results reported in article PMC13121807.
No constants are given. Whether binding was seen depends on the method and setting. In cells and extracts the contact can be indirect. Some binding calls cover weakened binding; strength is not graded here. For some assays here: Tags and fused reporters may be left off the sequences shown. One block for each molecule: values may come before it.

Sequences of proteins named here, by UniProt entry; tags and fusion partners are left off. Residues count along the entry.
UniProt P48764, residues 26-834: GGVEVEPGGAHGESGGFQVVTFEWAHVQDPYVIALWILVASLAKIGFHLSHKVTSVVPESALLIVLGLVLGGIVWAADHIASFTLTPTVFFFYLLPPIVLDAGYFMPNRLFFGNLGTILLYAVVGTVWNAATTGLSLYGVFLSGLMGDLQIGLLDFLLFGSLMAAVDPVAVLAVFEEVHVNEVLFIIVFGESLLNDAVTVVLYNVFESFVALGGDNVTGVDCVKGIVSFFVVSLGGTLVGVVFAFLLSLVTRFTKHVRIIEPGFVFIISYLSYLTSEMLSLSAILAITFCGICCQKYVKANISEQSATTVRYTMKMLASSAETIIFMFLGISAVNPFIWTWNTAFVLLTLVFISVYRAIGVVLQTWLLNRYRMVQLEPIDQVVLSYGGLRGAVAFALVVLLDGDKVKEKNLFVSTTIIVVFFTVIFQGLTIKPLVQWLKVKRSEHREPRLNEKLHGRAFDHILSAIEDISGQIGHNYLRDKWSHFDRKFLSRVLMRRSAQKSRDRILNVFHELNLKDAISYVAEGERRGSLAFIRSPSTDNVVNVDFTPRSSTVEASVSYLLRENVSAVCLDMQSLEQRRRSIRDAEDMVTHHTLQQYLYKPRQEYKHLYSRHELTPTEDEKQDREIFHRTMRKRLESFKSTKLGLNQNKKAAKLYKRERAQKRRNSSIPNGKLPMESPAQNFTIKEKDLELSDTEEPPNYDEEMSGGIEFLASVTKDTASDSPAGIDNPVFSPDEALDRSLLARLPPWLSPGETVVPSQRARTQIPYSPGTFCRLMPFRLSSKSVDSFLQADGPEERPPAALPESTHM
UniProt P19634: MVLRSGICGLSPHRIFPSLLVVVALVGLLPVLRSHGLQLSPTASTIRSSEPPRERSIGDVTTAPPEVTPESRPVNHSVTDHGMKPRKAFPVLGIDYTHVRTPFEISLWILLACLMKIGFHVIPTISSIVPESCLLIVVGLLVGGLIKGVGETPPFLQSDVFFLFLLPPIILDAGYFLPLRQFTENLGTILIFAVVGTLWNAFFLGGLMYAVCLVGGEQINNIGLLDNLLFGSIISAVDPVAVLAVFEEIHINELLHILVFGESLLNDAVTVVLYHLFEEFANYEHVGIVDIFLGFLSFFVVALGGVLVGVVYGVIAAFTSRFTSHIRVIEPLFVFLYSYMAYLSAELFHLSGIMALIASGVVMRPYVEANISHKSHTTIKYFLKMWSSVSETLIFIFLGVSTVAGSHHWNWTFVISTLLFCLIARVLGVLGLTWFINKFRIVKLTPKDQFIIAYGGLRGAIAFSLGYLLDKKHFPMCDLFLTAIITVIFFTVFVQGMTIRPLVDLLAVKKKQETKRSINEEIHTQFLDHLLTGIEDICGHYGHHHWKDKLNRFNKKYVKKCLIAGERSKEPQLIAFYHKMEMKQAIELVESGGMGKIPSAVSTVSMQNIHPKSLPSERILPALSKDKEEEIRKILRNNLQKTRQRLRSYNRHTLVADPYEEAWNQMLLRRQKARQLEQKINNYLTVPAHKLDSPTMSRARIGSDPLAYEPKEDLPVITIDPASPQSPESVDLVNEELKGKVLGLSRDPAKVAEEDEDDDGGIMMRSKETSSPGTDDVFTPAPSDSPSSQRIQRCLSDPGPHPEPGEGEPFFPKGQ

Tests used:
[1] = biological target: T1, cystinosinLKG-DsRed (human) (UniProt O60931); assay: co-IP; CTNS-deficient HK-2 cells stably expressing the GFP and DsRed fusions; whole cell lysate (50 mM Tris-HCl pH 7.5, 150 mM NaCl, 1% Igepal CA-630); GFP-Trap magnetic beads or anti-RFP (6G6) on Protein A Dynabeads, 4 °C overnight; blots for GFP and DsRed; normal IgG as negative control
T1 sequence: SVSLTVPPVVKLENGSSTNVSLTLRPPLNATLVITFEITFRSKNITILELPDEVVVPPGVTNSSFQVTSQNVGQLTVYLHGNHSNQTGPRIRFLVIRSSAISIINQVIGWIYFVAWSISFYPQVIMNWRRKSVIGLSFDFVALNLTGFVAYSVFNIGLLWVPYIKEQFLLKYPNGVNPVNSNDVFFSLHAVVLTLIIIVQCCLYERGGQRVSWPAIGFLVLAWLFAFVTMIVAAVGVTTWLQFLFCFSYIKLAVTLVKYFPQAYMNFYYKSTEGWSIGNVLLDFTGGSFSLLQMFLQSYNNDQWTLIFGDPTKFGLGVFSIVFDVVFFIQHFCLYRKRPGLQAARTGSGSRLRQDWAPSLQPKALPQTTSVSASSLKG

[2] = biological target: T1, cystinosinLKG-DsRed (human); assay: co-IP; HEK293T cells stably expressing the GFP and DsRed fusions; whole cell lysate (50 mM Tris-HCl pH 7.5, 150 mM NaCl, 1% Igepal CA-630); GFP-Trap magnetic beads or anti-RFP (6G6) on Protein A Dynabeads, 4 °C overnight; blots for GFP and DsRed; normal IgG as negative control
NHE3-GFP (human) [3] = biological target: NHE3-GFP (human) (UniProt P48764); assay: co-IP; CTNS-deficient HK-2 cells stably expressing the GFP and DsRed fusions; whole cell lysate (50 mM Tris-HCl pH 7.5, 150 mM NaCl, 1% Igepal CA-630); GFP-Trap magnetic beads or anti-RFP (6G6) on Protein A Dynabeads, 4 °C overnight; blots for GFP and DsRed; normal IgG as negative control
NHE1-GFP (human) = NHE1-GFP (human) (UniProt P19634); assay: co-IP; HEK293T cells stably expressing the GFP and DsRed fusions; whole cell lysate (50 mM Tris-HCl pH 7.5, 150 mM NaCl, 1% Igepal CA-630); GFP-Trap magnetic beads or anti-RFP (6G6) on Protein A Dynabeads, 4 °C overnight; blots for GFP and DsRed; normal IgG as negative control
NHE2-GFP (human) = biological target: T2, NHE2-GFP (human) (UniProt Q9UBY0); assay: as above
T2 sequence: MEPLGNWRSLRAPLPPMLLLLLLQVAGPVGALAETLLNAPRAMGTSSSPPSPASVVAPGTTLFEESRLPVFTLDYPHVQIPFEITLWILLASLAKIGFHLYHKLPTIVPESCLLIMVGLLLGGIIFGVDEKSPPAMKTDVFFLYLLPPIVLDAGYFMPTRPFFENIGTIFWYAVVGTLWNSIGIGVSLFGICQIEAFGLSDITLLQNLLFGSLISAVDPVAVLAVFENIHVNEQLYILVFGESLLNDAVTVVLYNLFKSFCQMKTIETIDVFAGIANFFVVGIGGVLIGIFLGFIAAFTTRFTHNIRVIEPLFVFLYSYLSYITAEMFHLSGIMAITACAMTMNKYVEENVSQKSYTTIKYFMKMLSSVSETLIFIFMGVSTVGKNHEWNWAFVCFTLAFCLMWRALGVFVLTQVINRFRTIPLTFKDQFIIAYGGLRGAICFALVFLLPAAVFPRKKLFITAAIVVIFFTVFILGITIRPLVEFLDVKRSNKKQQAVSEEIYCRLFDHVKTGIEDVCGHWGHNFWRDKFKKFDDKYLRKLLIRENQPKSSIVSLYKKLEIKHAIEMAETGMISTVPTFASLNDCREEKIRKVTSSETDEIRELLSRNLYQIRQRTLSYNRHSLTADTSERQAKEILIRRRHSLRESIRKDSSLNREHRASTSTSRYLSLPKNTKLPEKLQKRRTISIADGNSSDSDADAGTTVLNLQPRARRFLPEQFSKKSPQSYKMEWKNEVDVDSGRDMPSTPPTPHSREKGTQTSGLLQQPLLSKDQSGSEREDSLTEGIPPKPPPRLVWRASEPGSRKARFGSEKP

NHE3-GFP (human) [4] = biological target: NHE3-GFP (human) (UniProt P48764); assay: as above

binding [1]: binds
binding [2]: binds
Molecule: NHE3-GFP (from UniProt P48764 26-834)

binding [2]: no binding
Molecule: NHE1-GFP (from UniProt P19634 1-815)

binding (NHE3-GFP (human) [3]): binds
binding (NHE1-GFP (human)): no binding
binding (NHE2-GFP (human)): binds
binding (NHE3-GFP (human) [4]): binds
B1: cystinosinLKG-DsRed (protein, UniProt O60931-2 23-400)
chain: SVSLTVPPVVKLENGSSTNVSLTLRPPLNATLVITFEITFRSKNITILELPDEVVVPPGVTNSSFQVTSQNVGQLTVYLHGNHSNQTGPRIRFLVIRSSAISIINQVIGWIYFVAWSISFYPQVIMNWRRKSVIGLSFDFVALNLTGFVAYSVFNIGLLWVPYIKEQFLLKYPNGVNPVNSNDVFFSLHAVVLTLIIIVQCCLYERGGQRVSWPAIGFLVLAWLFAFVTMIVAAVGVTTWLQFLFCFSYIKLAVTLVKYFPQAYMNFYYKSTEGWSIGNVLLDFTGGSFSLLQMFLQSYNNDQWTLIFGDPTKFGLGVFSIVFDVVFFIQHFCLYRKRPGLQAARTGSGSRLRQDWAPSLQPKALPQTTSVSASSLKG

binding [2]: binds
B2: NHE2-GFP (protein, UniProt Q9UBY0 1-812)
chain: MEPLGNWRSLRAPLPPMLLLLLLQVAGPVGALAETLLNAPRAMGTSSSPPSPASVVAPGTTLFEESRLPVFTLDYPHVQIPFEITLWILLASLAKIGFHLYHKLPTIVPESCLLIMVGLLLGGIIFGVDEKSPPAMKTDVFFLYLLPPIVLDAGYFMPTRPFFENIGTIFWYAVVGTLWNSIGIGVSLFGICQIEAFGLSDITLLQNLLFGSLISAVDPVAVLAVFENIHVNEQLYILVFGESLLNDAVTVVLYNLFKSFCQMKTIETIDVFAGIANFFVVGIGGVLIGIFLGFIAAFTTRFTHNIRVIEPLFVFLYSYLSYITAEMFHLSGIMAITACAMTMNKYVEENVSQKSYTTIKYFMKMLSSVSETLIFIFMGVSTVGKNHEWNWAFVCFTLAFCLMWRALGVFVLTQVINRFRTIPLTFKDQFIIAYGGLRGAICFALVFLLPAAVFPRKKLFITAAIVVIFFTVFILGITIRPLVEFLDVKRSNKKQQAVSEEIYCRLFDHVKTGIEDVCGHWGHNFWRDKFKKFDDKYLRKLLIRENQPKSSIVSLYKKLEIKHAIEMAETGMISTVPTFASLNDCREEKIRKVTSSETDEIRELLSRNLYQIRQRTLSYNRHSLTADTSERQAKEILIRRRHSLRESIRKDSSLNREHRASTSTSRYLSLPKNTKLPEKLQKRRTISIADGNSSDSDADAGTTVLNLQPRARRFLPEQFSKKSPQSYKMEWKNEVDVDSGRDMPSTPPTPHSREKGTQTSGLLQQPLLSKDQSGSEREDSLTEGIPPKPPPRLVWRASEPGSRKARFGSEKP
